# Measured values taken from the antibiotic and cytotoxicity screens of Wong et al. (2023).
# The list shows a part of the results.
# Experiments:
# HSkMC = human skeletal muscle cells; experiment: cytotoxicity call (relative viability < 0.9); settings: 10 µM
# S. aureus RN4220 = experiment: growth inhibition call (relative growth <= 0.2); settings: 50 µM
Structure (SMILES),cytotoxicity call (HSkMC),growth inhibition call (S. aureus RN4220)
Cc1ccc(S(=O)(=O)Nc2ccc3c(c2)C(=O)N([C@@H](C)CO)C[C@@H](C)[C@H](CN(C)C(=O)c2ccccc2)OCCCC[C@H](C)O3)cc1,inactive,inactive
C[C@@H]1CN([C@@H](C)CO)C(=O)c2cc(NC(=O)NC3CCCCC3)ccc2O[C@@H](C)CCCCO[C@@H]1CN(C)C(=O)Nc1ccccc1,inactive,inactive
C[C@@H]1CCCCO[C@H](CN(C)Cc2ccc(Cl)c(Cl)c2)[C@@H](C)CN([C@H](C)CO)C(=O)c2cc(NS(C)(=O)=O)ccc2O1,inactive,inactive
C=CC(C)(O)CCC1C(C)(O)CCC2C(C)(C)CCCC21C (stereo not drawn),inactive,inactive
Cc1ccc(S(=O)(=O)N(C)C[C@@H]2OCCCC[C@@H](C)Oc3ccc(NC(=O)NC4CCCCC4)cc3C(=O)N([C@H](C)CO)C[C@@H]2C)cc1,inactive,inactive
CCCNC(=O)Nc1ccc2c(c1)C(=O)N(C)C[C@@H](OC)[C@@H](C)CN(Cc1ccc(-c3ccccn3)cc1)[C@@H](C)CO2,inactive,inactive
C[C@H](CO)N1C[C@H](C)[C@@H](CN(C)Cc2ccncc2)OCCCC[C@H](C)Oc2ccc(NC(=O)Nc3ccc(C(F)(F)F)cc3)cc2C1=O,inactive,inactive
C[C@H]1CCCCO[C@H](CN(C)Cc2ccc3c(c2)OCO3)[C@@H](C)CN([C@@H](C)CO)C(=O)c2cc(NC(=O)Nc3ccc4c(c3)OCO4)ccc2O1,inactive,inactive
COCCCNC(=O)C[C@H]1SC(=N)NC1=O,inactive,inactive
C[C@@H]1CN([C@H](C)CO)C(=O)c2cccc(NS(=O)(=O)c3ccc(Cl)cc3)c2O[C@H]1CN(C)Cc1ccc(C(=O)Nc2ccccc2N)cc1,inactive,inactive
NC(=O)Cn1c(=O)c2ccccc2n(CC(N)=O)c1=O,inactive,inactive
Cc1noc(C)c1S(=O)(=O)N(C)C[C@H]1Oc2ccc(NS(=O)(=O)c3ccc(Cl)cc3)cc2CC(=O)N([C@@H](C)CO)C[C@@H]1C,inactive,inactive
C[C@@H]1CCCCO[C@H](CN(C)C(=O)C2CCCCC2)[C@H](C)CN([C@@H](C)CO)C(=O)c2cc(NC(=O)Nc3ccc4c(c3)OCO4)ccc2O1,inactive,inactive
COc1ccc(S(=O)(=O)N(C)C[C@H]2Oc3c(NS(=O)(=O)c4cn(C)cn4)cccc3C(=O)N([C@H](C)CO)C[C@@H]2C)cc1,inactive,inactive
CC(C)CC(=O)N1CCN(S(C)(=O)=O)CC1,inactive,inactive
Cc1ccc(S(=O)(=O)N(C)C[C@H]2OCCCC[C@H](C)Oc3ccc(NC(=O)C4CCCCC4)cc3C(=O)N([C@H](C)CO)C[C@H]2C)cc1,inactive,inactive
C[C@H]1CN([C@@H](C)CO)C(=O)c2cccc(NC(=O)Nc3ccc(C(F)(F)F)cc3)c2O[C@H]1CN(C)C(=O)Nc1cccc2ccccc12,inactive,inactive
C[C@@H]1CCCCO[C@@H](CN(C)C(=O)CCC(F)(F)F)[C@@H](C)CN([C@H](C)CO)C(=O)c2cc(NC(=O)Nc3ccc(F)cc3)ccc2O1,inactive,inactive
CC(C)NC(=O)Nc1cccc2c1O[C@H](CN(C)S(=O)(=O)c1ccc(Cl)cc1)[C@H](C)CN([C@@H](C)CO)C2=O,inactive,inactive
O=C(O)C[C@@H]1C=C[C@H](NC(=O)c2ccncc2)[C@@H](CO)O1,inactive,inactive
C[C@H](CO)N1C[C@H](C)[C@H](CN(C)C(=O)Nc2ccc3c(c2)OCO3)Oc2cc(C#Cc3cccnc3)ccc2S1(=O)=O,inactive,inactive
COc1ccc(C#Cc2ccc3c(c2)O[C@@H](CN(C)C(=O)c2ccccn2)[C@H](C)CN([C@H](C)CO)S3(=O)=O)cc1,inactive,inactive
C[C@@H]1CN([C@H](C)CO)C(=O)Cc2cc(NC(=O)CCC(F)(F)F)ccc2O[C@H]1CN(C)C(=O)Nc1ccc(C(F)(F)F)cc1,inactive,inactive
COc1ccccc1C#Cc1ccc2c(c1)O[C@@H](CN(C)Cc1ccncc1)[C@@H](C)CN([C@@H](C)CO)S2(=O)=O,inactive,inactive
